Test results reported in the supplement of paper PMC3334620.
The full ranking holds about 33,000 sequences; the median of “E-score (-0.5 to 0.5)” is about -0.011, and the highest 2% start at about 0.28. This is one part of the list.

Each sequence was assayed against T1, Gcr1 (UniProt P07261) (assay: PBM E-score (8-mer binding enrichment) (E-score (-0.5 to 0.5)); higher = stronger / more preferred TF binding; most listed sequences are background and not binding sites). Conditions: protein concentration: 100 nM; construct: GST-full length.
T1 sequence: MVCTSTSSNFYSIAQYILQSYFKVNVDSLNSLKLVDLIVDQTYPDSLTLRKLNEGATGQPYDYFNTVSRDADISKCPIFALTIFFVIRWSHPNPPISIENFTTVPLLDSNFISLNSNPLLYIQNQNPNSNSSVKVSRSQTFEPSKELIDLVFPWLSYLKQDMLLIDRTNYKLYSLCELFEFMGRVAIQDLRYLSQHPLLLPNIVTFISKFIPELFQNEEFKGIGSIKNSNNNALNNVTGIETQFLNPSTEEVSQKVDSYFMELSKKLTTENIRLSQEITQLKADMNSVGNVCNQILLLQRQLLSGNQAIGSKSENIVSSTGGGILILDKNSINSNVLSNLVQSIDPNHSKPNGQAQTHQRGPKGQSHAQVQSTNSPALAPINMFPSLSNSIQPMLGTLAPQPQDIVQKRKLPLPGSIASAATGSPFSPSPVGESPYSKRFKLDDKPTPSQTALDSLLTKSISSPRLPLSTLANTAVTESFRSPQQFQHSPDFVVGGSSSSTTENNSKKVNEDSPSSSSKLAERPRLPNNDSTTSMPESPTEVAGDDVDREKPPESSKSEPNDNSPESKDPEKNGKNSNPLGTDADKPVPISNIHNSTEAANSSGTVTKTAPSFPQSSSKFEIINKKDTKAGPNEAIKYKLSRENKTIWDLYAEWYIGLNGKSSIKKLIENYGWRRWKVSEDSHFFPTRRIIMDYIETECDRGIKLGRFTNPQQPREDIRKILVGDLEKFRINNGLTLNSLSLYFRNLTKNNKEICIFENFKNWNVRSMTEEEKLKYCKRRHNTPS
Outline: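 Bound GST-tagged yeast transcription factors, applied at about 100-200 nM to double-stranded universal all-10-mer Agilent arrays, were detected with fluorescent anti-GST. Scans were normalised with masliner. A modified Wilcoxon-Mann-Whitney statistic, the E-score, was assigned to each ungapped eight-base word pooled with its reverse complement by the Universal PBM Analysis Suite.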

Row | Sequence | PBM E-score
1 | CCTGGAAC | -0.0042
2 | CCAGATCA | 0.0866
3 | GGGTGCAC | -0.0632
4 | CGTCCGCC | 0.0547
5 | GATGCGGA | 0.033
6 | AAATGTTA | 0.0988
7 | CAAATTAG | 0.124
8 | GGTAATGA | -0.0267
9 | AAGGATGG | -0.051
10 | GGGCTGCA | -0.267
11 | ATCGACCC | -0.0207
12 | GGCTGTAC | -0.208
13 | CGAATGCG | 0.0429
14 | TAGTCGCA | 0.07
15 | AAGAGGGC | -0.212
16 | ACTGTCCC | 0.0212
17 | AACGCTAT | 0.156
18 | ACGATCCT | -0.0105
19 | CTGATTTC | -0.0941
20 | CAGGGCCA | -0.0563
21 | CACACCCG | -0.0802
22 | GCCAAAAC | 0.128
23 | TAATAAAA | 0.146
24 | CTCAGCCA | -0.23
25 | AACGGATT | 0.24

Row | Sequence | PBM E-score
26 | AGGTCCAA | 0.0318
27 | CAGGATAA | 0.0948
28 | CTCATTTA | 0.0532
29 | ATGCGGGG | -0.133
30 | CCAGGAAC | 0.054
31 | CAATATTC | 0.0894
32 | AACTGAAG | -0.0474
33 | AGACAGTC | -0.107
34 | CCTCGGAG | -0.013
35 | AGCCAGAA | 0.13
36 | GCAATGGC | -0.26
37 | TCAAGGCA | -0.127
38 | CAAGTGCC | -0.0408
39 | GGGACACC | 0.184
40 | ACGTTGTA | -0.158
41 | TACTGTGA | -0.0365
42 | ACTGGGCG | 0.1
43 | ACGGTGCA | 0.0874
44 | CTCGGGAC | 0.0214
45 | CCGGCGGA | 0.0634
46 | CATCAGAG | -0.101
47 | GCTTGAAC | -0.109
48 | AGCAATCC | -0.187
49 | CCGGACCG | -0.204
50 | TACAAAGA | 0.0361

Row | Sequence | PBM E-score
51 | ACCGATAG | -0.0662
52 | CATGGTCC | -0.141
53 | ATACTGCG | -0.113
54 | AGTCACAA | 0.0657
55 | ATCCCATA | 0.181
56 | CAAGTTGG | 0.0716
57 | CCCGACAC | -0.129
58 | CCAAGCGA | -0.199
59 | ATGAGGAA | 0.17
60 | AAGCGCGG | 0.0626
61 | GCAAGCCC | -0.265
62 | ATAGCAAA | 0.0142
63 | CATGCGGC | -0.0307
64 | GTATGAGA | -0.0319
65 | CCACTCAC | 0.12
66 | GACCGCGA | -0.133
67 | CATCCTGC | -0.0356
68 | GCGATTAC | -0.147
69 | GGTACAGA | -0.138
70 | CAAGATAG | -0.0951
71 | CACTCTCC | -0.192
72 | CCTTAATA | 0.0869
73 | ACTGGTGA | -0.0641
74 | CCCCCCCA | -0.166
75 | GATGCATA | 0.156

Row | Sequence | PBM E-score
76 | AAGAGAGT | -0.209
77 | AACCAGCA | 0.0412
78 | CCACAACC | 0.225
79 | CTAGAGCC | -0.15
80 | CGGAAAAG | -0.0456
81 | AACCTTTC | 0.0668
82 | ATTGTCGG | -0.0342
83 | ATTTTTGC | 0.202
84 | GCGTGAGA | -0.201
85 | AATGAATT | 0.0972
86 | GAAGAACC | 0.05
87 | GCTGACCA | 0.0433
88 | GCGAGACC | -0.267
89 | ACTTGTTC | 0.01
90 | AGGGATCC | 0.286
91 | ATGTCGCG | -0.0443
92 | CGAGAACG | -0.0533
93 | AGCACGAG | 0.0114
94 | GGTATCAA | 0.0161
95 | ACAGGACC | 0.0207
96 | CCTCCCGC | -0.145
97 | TCTCCGCA | -0.0343
98 | CACGCAGA | -0.137
99 | ACTACAAC | 0.0309
100 | TATGGGAA | 0.129

Row | Sequence | PBM E-score
101 | AAAAACGA | 0.135
102 | GTTGGGGA | 0.113
103 | AGTGGGTA | 0.0272
104 | CACATGGG | 0.0536
105 | AGCATCCC | 0.33
106 | AGACCGAT | -0.146
107 | GAAGCGTC | 0.268
108 | CCTCCTCG | -0.262
109 | GAACGGGC | -0.0356
110 | AGTCTGCG | -0.0644
111 | CAGGTACC | 0.038
112 | ACCTGGGG | -0.0986
113 | CCGCTTAA | 0.0158
114 | CGACGCCC | 0.287
115 | TAAGAGTA | -0.0195
116 | CTGCATTA | -0.192
117 | CCAGAGGC | 0.183
118 | CATGATCA | -0.0223
119 | AGGCTATA | -0.0532
120 | GGACTGGA | -0.0243
121 | CCAGCCAG | -0.168
122 | AGATATTA | 0.211
123 | TACCTTCA | -0.148
124 | AGACGCCA | 0.283
125 | GCGATCCA | -0.12

Row | Sequence | PBM E-score
126 | ACCTCCTG | 0.0018
127 | AAACTCGG | 0.0566
128 | ACCCTGGG | -0.0476
129 | GATCAAGA | 0.0722
130 | AATGAAAC | 0.213
131 | AACGCGGG | -0.0186
132 | CACCGAGG | -0.183
133 | CATCAGCC | -0.131
134 | ATCGGCAA | -0.0338
135 | ACTGCAGC | -0.0382
136 | ACCGCCAC | 0.0444
137 | AAGGAATT | 0.0201
138 | GCCGCCCC | 0.188
139 | AGGTGAAG | -0.0354
140 | TGTCGACA | -0.233
141 | GTACATAA | -0.00437
142 | GCACCGCA | 0.131
143 | ACAGATTC | 0.176
144 | ATTTACAG | -0.0896
145 | AAGTGTCT | -0.0238
146 | AAAGAGTC | -0.0716
147 | AAGCAGCT | 0.33
148 | ATGTGCAC | -0.201
149 | AGAGTCCC | 0.0617
150 | GGTAGACA | 0.0236

Row | Sequence | PBM E-score
151 | ATCTCTTA | 0.0968
152 | CTGCTGCC | -0.0289
153 | CCGCGCGC | -0.135
154 | AACCGTGG | -0.00526
155 | ACCCAGTA | 0.265
156 | CATTAATA | 0.184
157 | ACGTCTCG | -0.22
158 | GTGGAGTA | -0.114
159 | ACGAACGG | -0.134
160 | AATAGAGA | -0.0168
161 | CAAGCGAG | 0.0239
162 | CATCCCCA | 0.0781
163 | GCATAGAA | -0.0243
164 | ACGCTAGC | -0.22
165 | TAGCCATA | -0.218
166 | ATGGGAGC | 0.1
167 | CTATGCAC | -0.129
168 | TGAGCCAA | -0.167
169 | GACACACC | -0.159
170 | CAACTGGA | 0.212
171 | GATGCGCC | 0.067
172 | AAGAATTG | 0.0115
